Data from the BET-seq Pho4 binding data (Le et al. 2018).
The other results are listed elsewhere or left out. The energies were worked out here from pooled read counts, against the library average; single values are noisy.

The sequences below were run against T1, Pho4 (S. cerevisiae) (UniProt P07270) (assay: relative binding free energy (BET-seq); higher = weaker binding). Conditions: reference: library average.
T1 sequence: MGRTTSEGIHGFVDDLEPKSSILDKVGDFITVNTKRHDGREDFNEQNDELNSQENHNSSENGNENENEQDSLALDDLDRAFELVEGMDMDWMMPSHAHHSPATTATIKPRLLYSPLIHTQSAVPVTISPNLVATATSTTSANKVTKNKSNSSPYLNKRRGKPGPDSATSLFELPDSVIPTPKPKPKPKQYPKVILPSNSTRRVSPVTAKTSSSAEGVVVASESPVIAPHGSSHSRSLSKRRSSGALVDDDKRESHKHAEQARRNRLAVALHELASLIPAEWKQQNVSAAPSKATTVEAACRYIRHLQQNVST
For GATGTCACGTGAAGTT, the “relative binding free energy” value was 1.46 kJ/mol.
In the case of GTTGTCACGTGGCAAA, the “relative binding free energy” value is reported as 0.711 kJ/mol.
With GAAGGCACGTGTAAGG the “relative binding free energy” value was 0.0837 kJ/mol.
With TGAGACACGTGTGAAG the “relative binding free energy” value was 0.46 kJ/mol.
With CAGGGCACGTGGTCGG the “relative binding free energy” value was -0.837 kJ/mol.
For GCAGGCACGTGGGGTC, the “relative binding free energy” value was -0.753 kJ/mol.
With TTCAGCACGTGAGTGT the “relative binding free energy” value was 0.879 kJ/mol.
AAGATCACGTGTGTGC was tested, and the “relative binding free energy” value was 0.753 kJ/mol.
For CTAGTCACGTGGTATA, the “relative binding free energy” value was -0.0837 kJ/mol.
ATGGACACGTGAGATT was tested, and the “relative binding free energy” value was 1.3 kJ/mol.
TTCAGCACGTGGGGCT was tested, and the “relative binding free energy” value was -0.962 kJ/mol.
In the case of AATGGCACGTGGGTTT, the “relative binding free energy” value is reported as -0.544 kJ/mol.
In the case of AATTTCACGTGGAAGG, the “relative binding free energy” value is reported as 0.669 kJ/mol.
In the case of TTGCTCACGTGGGTGA, the “relative binding free energy” value is reported as 0.628 kJ/mol.
With TGCACCACGTGGGGTT the “relative binding free energy” value was -1.09 kJ/mol.
In the case of CAAGGCACGTGGGCTG, the “relative binding free energy” value is reported as -0.92 kJ/mol.
With GGTTACACGTGGATAT the “relative binding free energy” value was 0.46 kJ/mol.
TGTGTCACGTGGGTAA was tested, and the “relative binding free energy” value was -0.126 kJ/mol.
In the case of TTAGACACGTGCTGTA, the “relative binding free energy” value is reported as -0.293 kJ/mol.
With TGCGTCACGTGTAGTT the “relative binding free energy” value was 0.46 kJ/mol.
With GGAGTCACGTGGCGTA the “relative binding free energy” value was 0.418 kJ/mol.
In the case of AGGGTCACGTGGTCGT, the “relative binding free energy” value is reported as -0.544 kJ/mol.
GTGAGCACGTGTGGGA was tested, and the “relative binding free energy” value was 0 kJ/mol.
For ATGTACACGTGTGCGA, the “relative binding free energy” value was 0.418 kJ/mol.
For CCGGTCACGTGGGCGG, the “relative binding free energy” value was -0.669 kJ/mol.
For ACGGACACGTGGGGGA, the “relative binding free energy” value was -0.753 kJ/mol.
With TTTACCACGTGTTTTA the “relative binding free energy” value was 0.0418 kJ/mol.
GGTATCACGTGATTAA was tested, and the “relative binding free energy” value was 1.3 kJ/mol.
GGTCGCACGTGTGAGA was tested, and the “relative binding free energy” value was 0.92 kJ/mol.
With GGCGTCACGTGGTAAA the “relative binding free energy” value was 1.13 kJ/mol.
GTCGTCACGTGGGGCT was tested, and the “relative binding free energy” value was 0.418 kJ/mol.
ATTGGCACGTGACTCT was tested, and the “relative binding free energy” value was 0.795 kJ/mol.
In the case of CAAGGCACGTGTGTGT, the “relative binding free energy” value is reported as -0.335 kJ/mol.
With GAATTCACGTGCTGTT the “relative binding free energy” value was 1.13 kJ/mol.
GGATTCACGTGGTTAT was tested, and the “relative binding free energy” value was 1.55 kJ/mol.
GTGTGCACGTGAGAAG was tested, and the “relative binding free energy” value was 0.879 kJ/mol.
TAATACACGTGAGTGG was tested, and the “relative binding free energy” value was 1.13 kJ/mol.
With TATCACACGTGGGGTG the “relative binding free energy” value was -0.126 kJ/mol.
ATTTTCACGTGGCTGT was tested, and the “relative binding free energy” value was 0.628 kJ/mol.
For TTGTGCACGTGGTCAG, the “relative binding free energy” value was -0.669 kJ/mol.
With AAAAGCACGTGCTGTG the “relative binding free energy” value was -0.293 kJ/mol.
TCTGGCACGTGGGAAT was tested, and the “relative binding free energy” value was -0.669 kJ/mol.
In the case of TGTGGCACGTGCAAAG, the “relative binding free energy” value is reported as -0.167 kJ/mol.
TGTTACACGTGGGTAG was tested, and the “relative binding free energy” value was 0 kJ/mol.
ATTGGCACGTGAAACG was tested, and the “relative binding free energy” value was 0.795 kJ/mol.
GGGGTCACGTGAATTT was tested, and the “relative binding free energy” value was 1.42 kJ/mol.
In the case of AAGTACACGTGCTTTT, the “relative binding free energy” value is reported as 0.418 kJ/mol.
In the case of TTTCTCACGTGCTTAT, the “relative binding free energy” value is reported as 0.628 kJ/mol.
In the case of GCGGGCACGTGTGGCA, the “relative binding free energy” value is reported as -0.209 kJ/mol.
With GAAGACACGTGGGTGA the “relative binding free energy” value was -0.335 kJ/mol.
With GAGGGCACGTGTGAGA the “relative binding free energy” value was 0.46 kJ/mol.
For AGGTCCACGTGTTGTA, the “relative binding free energy” value was -0.167 kJ/mol.
With TAGGTCACGTGTTGAA the “relative binding free energy” value was 0.335 kJ/mol.
In the case of AAGGTCACGTGGCGTA, the “relative binding free energy” value is reported as -0.126 kJ/mol.
With TTCGGCACGTGGAATT the “relative binding free energy” value was 0.586 kJ/mol.
In the case of AAAGGCACGTGTTTAA, the “relative binding free energy” value is reported as -0.46 kJ/mol.
In the case of AAAATCACGTGTTATG, the “relative binding free energy” value is reported as 0.377 kJ/mol.
For GGTAGCACGTGGTTTT, the “relative binding free energy” value was -0.418 kJ/mol.
For TCTAGCACGTGTTTGG, the “relative binding free energy” value was -0.0418 kJ/mol.
With TGGCGCACGTGCGGGC the “relative binding free energy” value was -0.0837 kJ/mol.
In the case of TTACTCACGTGGGTTT, the “relative binding free energy” value is reported as 0.335 kJ/mol.
For GGTTCCACGTGTAAGT, the “relative binding free energy” value was 0.795 kJ/mol.
With CGTAGCACGTGCGGGA the “relative binding free energy” value was -0.251 kJ/mol.
GTAGGCACGTGATATT was tested, and the “relative binding free energy” value was 0 kJ/mol.
TGTGGCACGTGGTTGC was tested, and the “relative binding free energy” value was -0.544 kJ/mol.
In the case of TGGGTCACGTGTCAGC, the “relative binding free energy” value is reported as 0.753 kJ/mol.
With TTTGTCACGTGACAAG the “relative binding free energy” value was 0.377 kJ/mol.
For CTTACCACGTGGTGGG, the “relative binding free energy” value was -0.502 kJ/mol.
With GGGGCCACGTGAAGCG the “relative binding free energy” value was 0.92 kJ/mol.
In the case of TCAATCACGTGAGTGG, the “relative binding free energy” value is reported as 1.67 kJ/mol.
With TTATCCACGTGGGGAG the “relative binding free energy” value was 0.0418 kJ/mol.
With GTTGGCACGTGATGTG the “relative binding free energy” value was 0.46 kJ/mol.
In the case of ATTGACACGTGAGTTT, the “relative binding free energy” value is reported as 0.879 kJ/mol.
With TAGGCCACGTGTTAGG the “relative binding free energy” value was -0.251 kJ/mol.
CGTGTCACGTGCGTGT was tested, and the “relative binding free energy” value was -0.126 kJ/mol.
With GGGTTCACGTGCACAG the “relative binding free energy” value was 1 kJ/mol.
In the case of GTGGTCACGTGAGGCC, the “relative binding free energy” value is reported as 1 kJ/mol.
AGGGTCACGTGTTCAA was tested, and the “relative binding free energy” value was 0.377 kJ/mol.
With TAGGGCACGTGGGCTG the “relative binding free energy” value was -0.837 kJ/mol.
In the case of ATTTTCACGTGAAGCG, the “relative binding free energy” value is reported as 2.01 kJ/mol.
For GGTCGCACGTGCTTTG, the “relative binding free energy” value was -0.502 kJ/mol.
For TGACACACGTGATGGG, the “relative binding free energy” value was 0.502 kJ/mol.
AATGTCACGTGTTGAT was tested, and the “relative binding free energy” value was 0.753 kJ/mol.
With AAGGGCACGTGAATAT the “relative binding free energy” value was 0.544 kJ/mol.
ATTGGCACGTGAAAAG was tested, and the “relative binding free energy” value was 0.46 kJ/mol.
In the case of TGAGTCACGTGTTATT, the “relative binding free energy” value is reported as 0.335 kJ/mol.
For TCGGGCACGTGTACTT, the “relative binding free energy” value was 0.377 kJ/mol.
TTAAGCACGTGAATGG was tested, and the “relative binding free energy” value was 0.753 kJ/mol.
For TCTGGCACGTGTAGTG, the “relative binding free energy” value was 0.335 kJ/mol.
TTTCACACGTGGGTAT was tested, and the “relative binding free energy” value was 0.0837 kJ/mol.
In the case of TGTACCACGTGTGAGC, the “relative binding free energy” value is reported as 0.962 kJ/mol.
CATTGCACGTGGTAGG was tested, and the “relative binding free energy” value was -0.837 kJ/mol.
In the case of GGATACACGTGGGGGA, the “relative binding free energy” value is reported as 0 kJ/mol.
In the case of TTAGACACGTGGTATG, the “relative binding free energy” value is reported as -0.879 kJ/mol.
With CGTCGCACGTGGTGAG the “relative binding free energy” value was -0.795 kJ/mol.
TGGTGCACGTGAGCTG was tested, and the “relative binding free energy” value was 1.13 kJ/mol.
TGTGCCACGTGTATGA was tested, and the “relative binding free energy” value was -0.209 kJ/mol.
In the case of CGGGACACGTGGGAGG, the “relative binding free energy” value is reported as -0.126 kJ/mol.
In the case of ATTTGCACGTGGGCGC, the “relative binding free energy” value is reported as -0.669 kJ/mol.
For GGAGTCACGTGGGCGG, the “relative binding free energy” value was 0.0418 kJ/mol.
With AGTAGCACGTGGGGTA the “relative binding free energy” value was -1.09 kJ/mol.
For GTAGGCACGTGGGGGG, the “relative binding free energy” value was -0.669 kJ/mol.
In the case of GTCTGCACGTGTTGTT, the “relative binding free energy” value is reported as 0.544 kJ/mol.
With TATTTCACGTGGTCAA the “relative binding free energy” value was 1 kJ/mol.
For TGTGGCACGTGAGGTG, the “relative binding free energy” value was 0.92 kJ/mol.
With GGTTTCACGTGATCTG the “relative binding free energy” value was 1.17 kJ/mol.
ATTGTCACGTGTACGG was tested, and the “relative binding free energy” value was 0.0837 kJ/mol.
In the case of AAGTACACGTGGAAGT, the “relative binding free energy” value is reported as 1.21 kJ/mol.
For GTTATCACGTGTCGGA, the “relative binding free energy” value was 0.92 kJ/mol.
In the case of CGGTTCACGTGTTCTG, the “relative binding free energy” value is reported as 1.09 kJ/mol.
AGCGGCACGTGTTCGT was tested, and the “relative binding free energy” value was -0.0837 kJ/mol.
In the case of GCTATCACGTGGTTTG, the “relative binding free energy” value is reported as 0.544 kJ/mol.
For CGGGCCACGTGTGGTG, the “relative binding free energy” value was 0 kJ/mol.
For GGGAGCACGTGGAGTG, the “relative binding free energy” value was -0.377 kJ/mol.
GGCGGCACGTGACAGG was tested, and the “relative binding free energy” value was 0.0837 kJ/mol.
